# In the supplement of paper PMC3334620:
# Over roughly 33,000 sequences, “E-score (-0.5 to 0.5)” has its median near -0.054; the highest 2% begin near 0.35. This is one part of the list.
# Target: T1, Stb5 (UniProt P38699)
# T1 sequence: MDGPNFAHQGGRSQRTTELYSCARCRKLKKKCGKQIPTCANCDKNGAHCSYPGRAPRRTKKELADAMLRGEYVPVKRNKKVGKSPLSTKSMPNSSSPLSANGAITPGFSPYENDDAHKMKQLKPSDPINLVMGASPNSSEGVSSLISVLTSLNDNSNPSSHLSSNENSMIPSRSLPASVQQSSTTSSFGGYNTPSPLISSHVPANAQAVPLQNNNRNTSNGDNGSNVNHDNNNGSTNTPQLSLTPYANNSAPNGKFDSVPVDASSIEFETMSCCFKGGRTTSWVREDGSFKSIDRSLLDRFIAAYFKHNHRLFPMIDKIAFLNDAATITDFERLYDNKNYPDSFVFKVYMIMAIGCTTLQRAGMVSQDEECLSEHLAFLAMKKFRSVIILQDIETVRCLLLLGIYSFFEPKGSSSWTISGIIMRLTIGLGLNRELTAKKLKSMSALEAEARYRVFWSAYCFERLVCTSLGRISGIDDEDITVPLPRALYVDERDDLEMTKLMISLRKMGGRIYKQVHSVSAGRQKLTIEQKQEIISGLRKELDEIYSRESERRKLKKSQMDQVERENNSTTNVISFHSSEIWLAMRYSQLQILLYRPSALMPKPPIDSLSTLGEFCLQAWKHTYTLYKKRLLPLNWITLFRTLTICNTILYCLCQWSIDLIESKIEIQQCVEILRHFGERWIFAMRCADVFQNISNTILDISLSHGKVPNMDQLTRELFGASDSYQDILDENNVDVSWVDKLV
# Test: PBM E-score (8-mer binding enrichment) (E-score (-0.5 to 0.5)); higher = stronger / more preferred TF binding; most listed sequences are background and not binding sites
# Conditions: protein concentration: 200 nM; construct: GST-full length
# In short: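 Yeast transcription factors, full-length or as DNA-binding domains, were expressed with a GST tag using PURExpress in vitro transcription/translation. At about 100-200 nM they were applied to universal all-10-mer Agilent arrays, double-stranded by primer extension on fresh or once-stripped slides. Fluorescent anti-GST detected bound protein, and masliner normalised the scans. E-scores for ungapped eight-base words, pooled with reverse complements, came from the Universal PBM Analysis Suite.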
row,Sequence,PBM E-score
1,AGCTTCGC,-0.231
2,TATTGTGA,-0.0986
3,AAAGACTA,-0.0271
4,CGTCCTAG,-0.139
5,CAGCTATC,-0.193
6,CCCCATCA,0.0625
7,ATCTAATA,-0.127
8,CGTAGATC,0.0562
9,ACTAGACA,-0.184
10,AAGTCTGA,-0.407
11,CGAGGCCG,0.123
12,CTAGGGAC,-0.033
13,CACAGAAC,-0.118
14,GTGTCTCA,-0.165
15,CAGCCATA,-0.263
16,AGTACGAC,-0.0155
17,AGGAGAAG,-0.263
18,AGCCATTC,-0.304
19,AATAATAT,0.262
20,CTTGTCAA,0.0815
21,CACGTGTA,-0.157
22,CCACATGG,-0.139
23,GACATCTA,-0.148
24,AGCTGTTG,-0.145
25,TCGAGTAA,-0.155

row,Sequence,PBM E-score
1,AGGCGCCT,-0.136
2,ATGAGAAG,-0.232
3,ACGCGAGC,-0.155
4,GAGGTCCA,-0.137
5,CAAACTGG,-0.105
6,GCAGTAGC,-0.0598
7,CACCCTCG,-0.0941
8,AACGAATA,-0.0787
9,ACGGGGAT,0.415
10,CTTGGGTC,-0.144
11,AGGCAATA,-0.0408
12,TTGGAAAA,-0.0399
13,ACGCAGAC,-0.175
14,ATGGGTGG,-0.168
15,ACCGTTCA,0.27
16,ATGTGACG,-0.235
17,GTGCAAGA,-0.00269
18,ATTATTCC,0.191
19,ACTCACAT,-0.228
20,GCCCGCCC,0.271
21,CACAGTAA,-0.113
22,GTTAACCA,-0.181
23,GAAAGTGC,0.022
24,GCTGAGCA,-0.169
25,GAGCGACA,-0.14

row,Sequence,PBM E-score
1,CTTTAAGA,0.0831
2,GACCTGTA,-0.0228
3,CCAATAAA,0.0325
4,AGTAGCGA,-0.0721
5,AGTCCGGA,0.39
6,GGAAGCTA,-0.285
7,CTGGTTGA,-0.299
8,CACCACGA,-0.122
9,AGACACAG,-0.276
10,ACGGCATG,0.242
11,CAGTATGA,-0.12
12,CGGTATGC,0.00802
13,AAAATAAT,0.0133
14,CTCGATAA,-0.1
15,AAAAGAAC,-0.0657
16,AGACACAT,0.0617
17,CCCCGTCG,0.313
18,ACATTTGG,-0.005
19,GTAGCTGA,-0.219
20,CGAAGGTA,0.0558
21,GCACAGAC,0.0491
22,ATAAAGGA,0.127
23,CAGAGGCG,0.0222
24,TAGTTACA,-0.0984
25,AAGTGAAT,-0.0291

row,Sequence,PBM E-score
1,CAGTCTTC,-0.217
2,GTCCGGAC,0.348
3,CACCCGGC,0.0834
4,CTCGCCAG,-0.09
5,AGAATGAC,-0.191
6,ACCTCAGG,-0.252
7,ACTCGCTG,-0.0554
8,GTTCCAAC,0.147
9,ACCAATCG,-0.0464
10,CACTCGAA,-0.167
11,AGGGAGGG,0.0331
12,GGCTATCA,-0.138
13,AGAGGGAT,-0.33
14,AGTAGTGA,-0.187
15,CTCTACCA,0.0166
16,GCGGACAA,0.309
17,AGTATGCA,-0.0573
18,AAGAGTTG,-0.19
19,GGATATGA,0.0322
20,CGGAAGAG,0.00942
21,ACCTACGG,0.214
22,AAAAATAC,0.0585
23,ACAAACTC,0.0471
24,CTCTCGAA,-0.298
25,GTGAACTA,-0.107

row,Sequence,PBM E-score
1,TGCCGCCA,0.283
2,GAAGGAAC,-0.0292
3,AATCAGAT,-0.134
4,AAGTCGGA,0.274
5,AACTAGAC,0.0858
6,CGTATACG,0.0927
7,AGCTCGAG,-0.106
8,GAGCGCAC,0.141
9,GTCATATA,0.0314
10,ATCAGGCC,0.0958
11,GAATTTCC,0.00787
12,ACGTGACC,-0.0533
13,GTGAGAGA,-0.127
14,CAAAGACC,0.192
15,GATGGACA,0.133
16,CACCCATA,-0.0963
17,GAATCGGC,0.212
18,GTTCAAAA,-0.0289
19,CCAGGTTA,-0.102
20,ACACCTCA,-0.283
21,ACCGGCTC,0.213
22,ATAACTAG,0.0581
23,GACGCACA,0.0925
24,ACCCTGAG,-0.163
25,CTATGATC,-0.00672

row,Sequence,PBM E-score
1,TCCGAAAA,0.142
2,ACTCTCGG,0.14
3,CACTGGCC,-0.234
4,CTCCGCAA,0.123
5,CCATTAAA,0.0322
6,CGTTTATA,0.13
7,AGAAGATA,-0.0181
8,CTTCCGGC,0.0896
9,CCTCGAGG,-0.326
10,CGATACTA,0.0932
11,CACTATCG,-0.0292
12,TGATGGCA,-0.257
13,ATGATTGC,-0.104
14,AGCTTCGG,0.196
15,AGGGGTGC,-0.119
16,CATCTGAG,-0.0382
17,GATAAGCA,0.0636
18,ACGCAGCA,-0.17
19,AGGCACAC,-0.203
20,CTGCGCTA,0.0203
21,GCCGGAGA,0.231
22,CCATGACG,0.0201
23,AGACGAGC,-0.248
24,GCCTCCAA,0.0176
25,CTAAAATC,-0.105

row,Sequence,PBM E-score
1,TGAAATAA,0.0137
2,GCTTTTAA,0.161
3,TCGCGAAA,0.0883
4,TACGAGAA,0.022
5,CCGCATCG,0.252
6,GTGGTACA,-0.142
7,CGCGTGAC,0.0187
8,AACAGGAG,-0.14
9,CGACATCC,0.0432
10,AGATTTCC,-0.133
11,ACGTTCTA,-0.247
12,AAGGCAAA,-0.363
13,CAACGGGA,0.146
14,ACCGCTTG,0.276
15,AGTAGAAT,-0.323
16,CTGGTCTA,-0.205
17,GCCGACTA,0.253
18,AGATTAGA,-0.075
19,AAGTTCGT,-0.0622
20,GAGCTGCA,-0.148
21,ATGATTCA,-0.185
22,CCGTCATC,0.257
